B1: OR4K15 (parent)
chain: GUUAACGGUCAUAGGCCAUGGAAACUAGGAGCACCAUUUCGCUGCCAGUGAAGAAAUGAACAAAGAAAAUCUGGGCCAGGCAGGCAUCAAAAGAAAUAGUCUUGCGCUCAACCAGAAAGUCUGUAAUCAUUUUAAGGGUA

The source gives no read counts; variants with many changes may rest on few reads.

The data set covers variants of B1. Nature of the data set: self-cleavage, relative activity (ratio to wild type); higher = more cleavage; in vitro, sequencing; the parent is a self-cleaving ribozyme.
With U2C U9C A66U A69G A111G U120C U127A, the self-cleavage came out at 0.02. As to U2C A56C A95G A117U, the self-cleavage was found to be 0.78.

In the case of U2A U9C A22G U43C A47G A117G, the self-cleavage was 1.59. The result for U2C A23G A95G reads 1.48. Consider U2C A82G U131C, for which the self-cleavage is 0.59. Turning to U2C A59G A60G A64U C109U U124C, the self-cleavage is 0.13.

Consider U2C G48A A98G U108C, for which the self-cleavage turned out to be 0.01.

For U2C U9C U102C A114G, the self-cleavage is 0.9. As for G1U U38C U39C U43G, the self-cleavage was 1.78. On to U2A A24G U70C A96G, for which the self-cleavage is 1.04.

U2A A67U U100C: the self-cleavage was found to be 0.65. For the variant U2C A23G A94G A110G, the self-cleavage worked out at 0.15. Take U2C U9C U108C A116U U120A: the self-cleavage came out at 0. For the variant U2C A5G A54G A55G U70G A78G A82G A92G, the self-cleavage came to 0.21. On to U2C A69U A92G A95G, for which the self-cleavage was found to be 1.55. As for U2C A52U U122C, the self-cleavage was 0.63.

With U2C A22G A23G A60G U102C, the self-cleavage was 1.36. In the case of U2C U38C A68G G75A A110G, the self-cleavage turned out to be 0.03. Turning to U2A A63G U108C A110U, the self-cleavage was found to be 0.03.

As for U2C U120C A134G, the self-cleavage turned out to be 0.57. The result for U2A U37C U49A A116U U127C reads 0.14; that for U2C A4G A94G A95G, 1.2; that for U2A A68G U70C A82G A90G A110G G115A, 0.02. Regarding U2A U70C A92G, the self-cleavage is 0.9.

Regarding U2C A23G A52G, the self-cleavage came out at 1.64.

In the case of U2A A30G U38A A62U A82U A94G, the self-cleavage came to 0.14. The result for U2A U12A A33G U43C U97A A114G U139A reads 0.23; that for U2C U9C U70C A86U A111G, 0.01; that for U2C A95G U130C, 2.19. Regarding U2G C10U G28A A114U, the self-cleavage came to 0.21. G1A A23U A67G: the self-cleavage is 2.4. Turning to U2C G20U A47U A60G U108C, the self-cleavage came to 0.03.

Turning to U2A U43C A94G G137C, the self-cleavage is 1.57. For the variant U2C A4G A118G, the self-cleavage was determined as 0.72.

Turning to U2G A18G A30G A55G A59G A114G U132A, the self-cleavage is 0.4. The result for U2A G31A A63G A114U reads 0.06; that for U2C U108A A111G, 0.01; that for U2A A33U G80A A118G, 0.28.

On to U2A U72A U132C A140U, for which the self-cleavage is 0.33. As to U2C U100C A116G, the self-cleavage is 1.38. In the case of U2C U49C A64G A67G U130C, the self-cleavage came out at 0.29. Consider U2C A67U U122C A135G, for which the self-cleavage came out at 0.82.

For the variant U2A U37C C81U, the self-cleavage was 0.79. U2C A23G U70G A92G U122C: the self-cleavage was 0.57. The result for U2A A62G A68G A111G reads 0.05; that for U2G A22U A55G, 0.7; that for U2G A55U A63C A67G A78G A117G, 0.34. Take G1C A24G U70C: the self-cleavage amounted to 0.99. Consider U2A A55G U103C U122C, for which the self-cleavage was 0.47. As to U2G A27U G73A A118G U127C, the self-cleavage was determined as 0. Regarding U2A A69G U103C C121U, the self-cleavage was found to be 1.63.

For U2A A30U A47G A90G, the self-cleavage was determined as 0.64. As to U2C A30G A62G A67G, the self-cleavage stood at 1.09.

As to U2C A47G A51G U103C, the self-cleavage came out at 0.5. The result for U2A U12C U43C A64U A66U A82U reads 0.17. Consider U2A A24G U70A, for which the self-cleavage was 0.9. Regarding U2A U57C A63G A96G, the self-cleavage is 1.09.

Take G1A A51G C61U U87C U120C: the self-cleavage was 1.28.

For U2C U12C A13U A62G A78C A91G, the self-cleavage was found to be 0.24. Regarding U2C A86U U124C, the self-cleavage was found to be 1.41. For U2C A22G A54G A91G C113A, the self-cleavage stood at 0.03.

Regarding U2C C35A A51G U57G A117U U131C, the self-cleavage amounted to 0.75. In the case of U2C U19C A89G U97C C121U, the self-cleavage amounted to 0.87. Regarding U2C C6A A86C U100C, the self-cleavage was determined as 0.49. With G1A A54G A59G A78C, the self-cleavage was 0.49. In the case of U2A A36U U37C A66G, the self-cleavage stood at 0.49.

Take U2C U3C A68G: the self-cleavage stood at 1.02.

As to U2C A52G U103C, the self-cleavage came out at 0.56. Take U2C A22G A23G A68G A92G: the self-cleavage came out at 0.6.

Regarding U2C G58A G84A, the self-cleavage is 2.

As to U2C U49C A91G, the self-cleavage came to 0.14.

On to U2C A92G A117U, for which the self-cleavage amounted to 0.19. The result for U2C A23G A135U reads 0.73. The result for U2C A13G A51G U87C A98U reads 0.75; that for U2C U43C A55G U100C U132C, 2.65; that for U2C A51U A82G A86G U103C, 1.32. Take U2C A36G A52U: the self-cleavage was determined as 1.43.

Consider G1U U38A U49C A55G U57C A86G, for which the self-cleavage amounted to 0.87. The same measure for U2C U102A U130C: 0.5. For U2C A68U A92G A117U U124C, the self-cleavage stood at 1.9.

With U2C A67G U103C, the self-cleavage was 0.79. Regarding U2C U9G A22G A47G A90G, the self-cleavage amounted to 0.77. The result for U2A U3A A60G G84C U122C reads 0.47; that for U2C A47G U72G, 0.29.

Consider U2C U38C A52G A91G, for which the self-cleavage is 0.76. Turning to U2C A11G A24U, the self-cleavage is 1.23. On to U2C G14C A117G, for which the self-cleavage came to 1.58. Take U2C A55G A64G A67G U72C A117G: the self-cleavage amounted to 0.07. Turning to U2G A5G A96G U100C, the self-cleavage turned out to be 1.43.

Consider U2A A22G A33U A36G, for which the self-cleavage is 1.02. For the variant U2C A51U A96G, the self-cleavage was 2.99. The same measure for U2G A54G U122C: 0.38.

In the case of U2C A11C C25G G80C A126G U127C, the self-cleavage came out at 0.03.

On to G1A U108C U122C U124C, for which the self-cleavage is 0. U2C A69G A90G A110G A118G U132C: the self-cleavage was found to be 0.06. On to U2G A51U A56G U57C A118G, for which the self-cleavage was found to be 0.25. As to U2C U37C A62G A78G G83C U127C U132C, the self-cleavage was found to be 0.05. Turning to U2C C17U A52G U131C, the self-cleavage was determined as 0.14. U2C C109A U130C: the self-cleavage stood at 0.09.

Turning to U2C A47G A60U, the self-cleavage amounted to 2.09.

As to U2C U38C U57A, the self-cleavage was found to be 1.04. For U2C A118U U132A, the self-cleavage amounted to 0.74.

Take U2A U72C A78U: the self-cleavage is 0.21. Take U2C A86G U120C: the self-cleavage was 0.41. On to U2C A13G U26G A55G U57C A95G U130C, for which the self-cleavage turned out to be 1.69. U2C A5C A22G A60G A90G A96G A117G: the self-cleavage stood at 1.16. In the case of U2C U39G A78U, the self-cleavage turned out to be 0.04. With U2C A36G A69G, the self-cleavage was found to be 0.64. U2A A5G A54G A110G U130C: the self-cleavage amounted to 0.22. On to G1U A11G C17U U37C A117C, for which the self-cleavage was found to be 0.44. Regarding U2C A92G U102C, the self-cleavage came to 0.86. In the case of U2C C85A A94G A129G, the self-cleavage is 0.77. Turning to U2C U39C G84U, the self-cleavage was determined as 0.78. Regarding U2A U38C A55G A94G, the self-cleavage amounted to 1.55. With U2C A47U A59U A96G A117G U130C, the self-cleavage amounted to 0.21.

For U2C A4U C113U A116G U120C, the self-cleavage is 0.02.

For the variant G1A A47G G58A A59G U70C A92G A117G, the self-cleavage was determined as 1.58. Consider U2C A67G U108C A118G, for which the self-cleavage was found to be 0.02. The result for U2C A67G A111U reads 0.16. U2C A13G U38C: the self-cleavage stood at 1.31. Regarding G1U U37C A69G U100C C112A G138A, the self-cleavage turned out to be 0.01.

Regarding U2C U38C U49C, the self-cleavage worked out at 0.94. Turning to U2C A64G A98G A126G A129G, the self-cleavage stood at 0.15.

Turning to U2A U9C A78U U127C U133C, the self-cleavage worked out at 0.33.

In the case of U2C A51U A117U, the self-cleavage was 0.34. Consider U2C A18U C101U, for which the self-cleavage came to 0.18.

With G1A A22G A24G, the self-cleavage was found to be 0.85. Consider U2C A55G U103C, for which the self-cleavage stood at 0.34.

U2C U3C A24U: the self-cleavage was 0.69. With U2G A86U A89G A114U, the self-cleavage turned out to be 0.38. For the variant U2A A18U A69G, the self-cleavage was found to be 1.31. In the case of U2A U3C A24G U43A A82G U103C, the self-cleavage is 1.42. As for U2A A11G A125G, the self-cleavage came to 0.38. As for U2C U19C A116G, the self-cleavage came out at 0.85.

Regarding U2C A5G U9C A23G A51G, the self-cleavage was found to be 0.87. The same measure for U2C A22G U100C U108C U139C: 0.03; for U2A C17U U102C: 1.65; for U2C A47U U102A: 0.5. With U2A G29C U43C A62U U102C U124A A126C, the self-cleavage was found to be 0.44. With U2C U3C U43A A117G, the self-cleavage was found to be 1.16.

U2C A30G A95U A98G A118G: the self-cleavage stood at 0.77.

Consider G1A U9C A59U A90G, for which the self-cleavage was found to be 1.83.

On to U2C U19A A126G, for which the self-cleavage is 1.75.

Consider U2C A23U A68U U72A G84U A116G, for which the self-cleavage came out at 0.09. As for U2C A36G A67C A117G, the self-cleavage was found to be 1.3. The same measure for U2C U108A A117G U133A: 0.01; for U2C A22G C105U U131C: 0.12; for U2G A94G U122C: 2.56. With U2C G44A A67G A135G, the self-cleavage was 0.97.

As for U2C A18G U122G, the self-cleavage turned out to be 1.69. As to U2C U49C U122A, the self-cleavage was determined as 1.77. For G1A U38A A54G A55G U102C U120C, the self-cleavage amounted to 0.89. For the variant U2C U57C G73A U103C, the self-cleavage came to 0.08. Consider U2C A66U G80U, for which the self-cleavage stood at 0.09.

Turning to U2C A47G A64U A78G, the self-cleavage turned out to be 0.08. As for G1A C112U A140G, the self-cleavage came out at 0.04. As to U2C A24G A54G A111G U133C, the self-cleavage was found to be 0.03. As to U2C U9A A86G U120C, the self-cleavage worked out at 1.02. Turning to G1U G50A C107U, the self-cleavage worked out at 0.02. Take U2C U39C U103C: the self-cleavage was determined as 1.06.

For U2C A62U U103C A126G A140G, the self-cleavage worked out at 0.86. The same measure for U2C A59G A68G: 0.6; for G1A U38C U70A A117G: 0.55. On to U2C A22G U103C, for which the self-cleavage stood at 0.56. In the case of U2C A56G A111G A114G U139A, the self-cleavage is 0.08.

On to U2C U43C U49C A68G A69G U103G, for which the self-cleavage worked out at 0.08.

Consider U2A A56G A69G C76U, for which the self-cleavage was 0.15.

Values taken from the RNAGym collection of RNA variant scans (doi:10.7554/elife.90254).
